For two molecules, binding results are on record in publication PMC3722281.

Protein sequences, listed by entry. Tags and fused reporters are not part of them.
UniProt Q64261: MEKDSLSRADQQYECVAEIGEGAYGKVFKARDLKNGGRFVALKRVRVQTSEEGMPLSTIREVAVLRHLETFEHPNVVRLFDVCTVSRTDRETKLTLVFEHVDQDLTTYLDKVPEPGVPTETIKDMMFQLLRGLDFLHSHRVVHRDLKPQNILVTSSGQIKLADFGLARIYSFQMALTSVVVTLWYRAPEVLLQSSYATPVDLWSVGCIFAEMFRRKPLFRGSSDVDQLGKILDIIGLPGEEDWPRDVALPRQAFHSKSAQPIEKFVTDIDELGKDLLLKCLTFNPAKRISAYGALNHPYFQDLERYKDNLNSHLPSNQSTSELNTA

Common to all, as to experiment: co-IP; cell lysate mixed with RIPA buffer lacking SDS and deoxycholate, anti-p16 antibody (Santa Cruz) and Protein A/G beads; immunoblot for Cdk4 and Cdk6; MM189 cells expressing ectopic p16 proteins
Assay [1] addresses T1, mouse p16 A12S mutant (mouse) (UniProt P51480).
T1 sequence: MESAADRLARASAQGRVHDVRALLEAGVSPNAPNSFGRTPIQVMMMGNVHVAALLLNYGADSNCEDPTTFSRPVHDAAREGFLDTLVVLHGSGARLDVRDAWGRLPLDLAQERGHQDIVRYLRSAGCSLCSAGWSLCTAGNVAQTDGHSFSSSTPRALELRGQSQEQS

Assay [2] has as its target T2, mouse p16 D66N mutant (mouse) (UniProt P51480).
T2 sequence: T1 sequence with S12A, D66N

For assay [3], the target named is T3, mouse p16 D76V mutant (mouse) (UniProt P51480).
T3 sequence: T1 sequence with S12A, D76V

Assay [4] concerns the target T4, mouse p16 E112K mutant (mouse) (UniProt P51480).
T4 sequence: T1 sequence with S12A, E112K

Assay [5] concerns the target T5, mouse p16 R79L mutant (mouse) (UniProt P51480).
T5 sequence: T1 sequence with S12A, R79L

The target in assay [6] is T6, wild type mouse p16 (mouse) (UniProt P51480).
T6 sequence: T1 sequence with S12A

Substitutions are numbered along the chain they refer to. These are yes or no findings as the source states them, for the method shown. Binding seen in cells or lysates may run through a third protein. Some entries that bind do so weakly or less than the wild type.

For “Cdk6 (from UniProt Q64261 1-326) (enzyme)”, the binding result was “binds” in assay [1]; “no binding” in assay [2]; “no binding” in assay [3]; “binds” in assay [4]; “binds weakly” in assay [5]; “binds” in assay [6].

B1: Cdk4 (enzyme, UniProt P30285 1-303)
chain: MAATRYEPVAEIGVGAYGTVYKARDPHSGHFVALKSVRVPNGGAAGGGLPVSTVREVALLRRLEAFEHPNVVRLMDVCATSRTDRDIKVTLVFEHIDQDLRTYLDKAPPPGLPVETIKDLMRQFLSGLDFLHANCIVHRDLKPENILVTSNGTVKLADFGLARIYSYQMALTPVVVTLWYRAPEVLLQSTYATPVDMWSVGCIFAEMFRRKPLFCGNSEADQLGKIFDLIGLPPEDDWPREVSLPRGAFAPRGPRPVQSVVPEMEESGAQLLLEMLTFNPHKRISAFRALQHSYLHKEESDAE
As to B1, the binding result in assay [1] is on record as “binds”; in assay [2], “no binding”; in assay [4] it was “binds”; in assay [5] it was “no binding”; in assay [6], “binds”.
